Screen size: about 310,000 compounds; about 2,200 (0.71%) showed an effect of 50% or more. The effect is printed as a negative number. The list shows a part of the results.
biological target: human ether-à-go-go-related gene (hERG) potassium channel (human, UniProt Q12809); assay: primary screen, population patch clamp on CHO cells stably expressing hERG
Sequence (Q12809 whole entry, looked up): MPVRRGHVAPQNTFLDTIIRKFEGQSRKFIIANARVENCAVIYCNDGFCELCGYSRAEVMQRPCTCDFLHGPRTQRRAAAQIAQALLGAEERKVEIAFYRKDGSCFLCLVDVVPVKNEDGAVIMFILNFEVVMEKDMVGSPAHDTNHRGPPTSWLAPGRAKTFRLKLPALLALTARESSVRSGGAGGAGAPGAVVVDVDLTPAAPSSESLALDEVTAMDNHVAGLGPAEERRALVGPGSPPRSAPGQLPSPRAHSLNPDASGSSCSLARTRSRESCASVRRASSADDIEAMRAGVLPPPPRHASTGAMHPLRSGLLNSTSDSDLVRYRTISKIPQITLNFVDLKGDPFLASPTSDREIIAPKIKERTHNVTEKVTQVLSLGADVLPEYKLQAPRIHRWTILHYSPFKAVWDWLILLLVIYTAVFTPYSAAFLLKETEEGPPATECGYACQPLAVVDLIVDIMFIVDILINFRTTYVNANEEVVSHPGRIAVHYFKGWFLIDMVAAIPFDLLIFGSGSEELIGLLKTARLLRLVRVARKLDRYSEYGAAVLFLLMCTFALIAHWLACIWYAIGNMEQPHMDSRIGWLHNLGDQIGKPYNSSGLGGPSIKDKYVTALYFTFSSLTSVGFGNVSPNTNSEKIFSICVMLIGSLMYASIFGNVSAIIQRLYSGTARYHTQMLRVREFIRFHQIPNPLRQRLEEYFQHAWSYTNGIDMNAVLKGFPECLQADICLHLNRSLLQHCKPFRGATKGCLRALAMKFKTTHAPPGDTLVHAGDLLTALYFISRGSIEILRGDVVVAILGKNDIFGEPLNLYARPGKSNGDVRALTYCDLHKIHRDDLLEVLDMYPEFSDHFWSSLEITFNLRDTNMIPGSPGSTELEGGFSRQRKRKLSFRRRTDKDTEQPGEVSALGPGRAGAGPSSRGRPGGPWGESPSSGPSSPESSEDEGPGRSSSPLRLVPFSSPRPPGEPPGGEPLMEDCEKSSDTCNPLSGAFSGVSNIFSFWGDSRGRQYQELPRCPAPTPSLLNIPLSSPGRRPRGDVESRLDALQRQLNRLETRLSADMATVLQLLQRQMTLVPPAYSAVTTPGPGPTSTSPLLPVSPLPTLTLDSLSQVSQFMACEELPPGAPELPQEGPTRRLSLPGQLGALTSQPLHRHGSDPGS

SMILES | hERG current change (%, negative = inhibition) at 1uM
COc1ccc(S(=O)(=O)N2CC(O)CC2C(=O)Nc2cccnc2)cc1 (stereo not drawn) | 11%
C/C(=C\c1ccc(C(=O)O)cc1)c1ccc2c(c1)C(C)(C)CCC2(C)C | 15%
Cc1ccc(CNC(=O)c2cc(C3CC3)nc3c2cnn3C(C)C)cc1 | 5.49%
C/C(=N\O)C(C)(C)Nc1ccc(Br)cc1 | 16.5%
COC(=O)COc1ccc2c(=O)c(-c3ccccc3OC)coc2c1 | 17.8%
Cc1cc(C)c(S(N)(=O)=O)c(C)c1-n1cnnn1 | 8.32%
O=C(O)CCCNC(=O)CCn1nnc2ccccc2c1=O | 8.48%
COc1ccc(Cl)cc1Nc1nc(C)cc(C)c1C(N)=O | 13.8%
COc1ccc(OCC(=O)Nc2c(C(=O)N(CCN(C)C)Cc3ccco3)oc3ccccc23)cc1 | -82.2%
Cc1occc1C(=O)NC(C)c1ccc2c(c1)OCO2 (stereo not drawn) | -3.36%
CC(NS(=O)(=O)c1ccc2c(c1)C(C)(C)C(=O)N2C)c1ccccc1 (stereo not drawn) | 0.803%
CC(C)(C)C(=O)CSc1ncnc2c1cnn2-c1ccccc1 | 0.676%
O=C(NCc1ccncc1)Nc1cccc(Cl)c1 | -1.92%
CCOCCCn1c(=S)[nH]c2cc(C(=O)NCCN(CC)CC)ccc2c1=O | -22.2%
COC(=O)C(C)Sc1nnc(Cc2cc(=O)[nH]c(=O)[nH]2)n1-c1cccc(OC)c1 (stereo not drawn) | 9.69%
CC(=O)c1cccc(N(C(=O)Cn2nnc3ccccc32)C(C(=O)NCC2CCCO2)c2ccc(N3CCOCC3)cc2)c1 (stereo not drawn) | 8.15%
CC(O)(CC(=O)O)CC(=O)O | 17.5%
CC(=O)c1ccc(NS(=O)(=O)c2cc3c(cc2C)N(C(C)=O)CCO3)cc1 | 17.5%
COc1ccc(C(=O)COC(=O)c2ccccc2NS(=O)(=O)c2ccc(O)c([N+](=O)[O-])c2)cc1 | 6.58%
O=C(Nc1ccccc1)OC1CCC2CC1CCC2OC(=O)Nc1ccccc1 (stereo not drawn) | 3.1%
Oc1c(Cl)cc(Cl)cc1C=Nc1ccc2c(c1)OCCO2 | 16%
Nc1cccc(Nc2ccccc2)c1 | 16.3%
COc1ccc(NC(=O)C2(c3ccc(NC(=O)c4ccc(C)cc4)cc3)CCCC2)cc1 | 9.7%
CC(=O)N1c2ccc(S(=O)(=O)N3CCC(C(=O)N4CCC(C)CC4)CC3)cc2CC1C (stereo not drawn) | 11.9%
